From the supplement of paper PMC3334620
In all, about 33,000 sequences were measured (“E-score (-0.5 to 0.5)”: median about -0.041, highest 2% from about 0.37 on). The list shows a part of the results.

Target: T1, Ecm22 (UniProt Q05958)
T1 sequence: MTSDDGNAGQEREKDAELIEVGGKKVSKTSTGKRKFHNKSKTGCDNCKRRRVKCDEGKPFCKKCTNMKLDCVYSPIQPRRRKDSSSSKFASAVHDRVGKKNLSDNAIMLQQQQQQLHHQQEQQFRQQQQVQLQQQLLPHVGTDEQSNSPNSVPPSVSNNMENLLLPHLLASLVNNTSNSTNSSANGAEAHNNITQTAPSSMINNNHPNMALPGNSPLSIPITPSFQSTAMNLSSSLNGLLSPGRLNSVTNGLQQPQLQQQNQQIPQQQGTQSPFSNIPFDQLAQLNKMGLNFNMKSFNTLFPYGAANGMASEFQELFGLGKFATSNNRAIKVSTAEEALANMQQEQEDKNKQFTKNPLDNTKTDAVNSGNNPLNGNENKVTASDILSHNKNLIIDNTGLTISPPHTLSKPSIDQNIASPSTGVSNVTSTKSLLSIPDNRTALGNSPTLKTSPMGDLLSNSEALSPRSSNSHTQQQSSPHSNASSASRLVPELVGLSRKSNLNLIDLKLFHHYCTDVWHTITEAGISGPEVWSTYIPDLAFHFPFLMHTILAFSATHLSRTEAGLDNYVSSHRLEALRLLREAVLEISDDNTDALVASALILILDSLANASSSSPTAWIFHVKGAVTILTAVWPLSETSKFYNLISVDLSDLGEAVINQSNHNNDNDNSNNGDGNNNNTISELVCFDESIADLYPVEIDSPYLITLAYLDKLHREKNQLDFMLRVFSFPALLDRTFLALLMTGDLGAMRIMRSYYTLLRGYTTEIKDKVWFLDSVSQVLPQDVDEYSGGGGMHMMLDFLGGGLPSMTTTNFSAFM
Experiment: PBM E-score (8-mer binding enrichment) (E-score (-0.5 to 0.5)); higher = stronger / more preferred TF binding; most listed sequences are background and not binding sites
Conditions: protein concentration: 200 nM; construct: GST-full length
In short: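 Bound GST-tagged yeast transcription factors, applied at about 100-200 nM to double-stranded universal all-10-mer Agilent arrays, were detected with fluorescent anti-GST. Scans were normalised with masliner. A modified Wilcoxon-Mann-Whitney statistic, the E-score, was assigned to each ungapped eight-base word pooled with its reverse complement by the Universal PBM Analysis Suite.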

| Sequence | PBM E-score |
| --- | --- |
| ACCGCCCC | 0.0878 |
| ACATCACG | 0.0575 |
| ATGAGATG | -0.227 |
| ATTCTGCC | -0.105 |
| AATAGAAG | 0.0168 |
| CAGAGACC | -0.143 |
| AAGTTCTG | -0.088 |
| TAGCAGGA | -0.208 |
| GGGCGAAA | 0.0574 |
| AACCTCGG | 0.168 |
| GGTTAGAC | -0.0792 |
| CTTAGAAA | -0.201 |
| CTGGATAC | 0.112 |
| CTGCTCGC | 0.0949 |
| CGCGCGGA | 0.0841 |
| CTCGCCTC | -0.0125 |
| GGAATGCA | -0.11 |
| AGTTAGAT | -0.239 |
| AGAGACTG | -0.171 |
| ATCACCGC | 0.0231 |
| ACTCGCCA | 0.0346 |
| ACCGAGCA | 0.252 |

| Sequence | PBM E-score |
| --- | --- |
| GTTTATCA | 0.089 |
| ACGCGTTA | 0.0663 |
| ACGAGTTG | 0.371 |
| ATTTATTC | 0.0382 |
| GGTACATA | 0.0186 |
| GATCGATA | 0.102 |
| CCACAGAA | 0.0544 |
| GAAAACGC | 0.0151 |
| ATTGGGTA | -0.132 |
| AACACGAT | 0.0697 |
| AATCGCAC | 0.0387 |
| CTCATAGC | -0.0777 |
| ACTTGCCA | -0.239 |
| GAATTTTA | -0.0314 |
| AGGGGGAT | -0.154 |
| ATGTGAGG | -0.129 |
| ACTAGAAC | 0.0361 |
| ACAATAAC | -0.134 |
| CCGGCGAC | -0.141 |
| AGGGTTCC | -0.186 |
| GCAACTCA | -0.0943 |
| CCGCATCC | -0.112 |

| Sequence | PBM E-score |
| --- | --- |
| TAGCCTGA | -0.178 |
| CTACCCAG | -0.0541 |
| CTGAAGCA | -0.2 |
| ACAAAAGG | 0.032 |
| ATTATAGA | -0.0038 |
| CACTTAGG | -0.058 |
| CGGTTACG | 0.276 |
| CAGGGGAG | -0.241 |
| CTCTTCGC | -0.0036 |
| GGCCCTTA | -0.168 |
| ACGTAATA | 0.165 |
| AAAATAAC | -0.104 |
| AGCACACG | -0.0915 |
| CACGTGAA | 0.123 |
| TATGGAAA | 0.0524 |
| CGCCGAAA | 0.0707 |
| CGGACATC | 0.0732 |
| GGTCAAGA | -0.309 |
| AGTGGATC | 0.0138 |
| ATATGGCG | 0.0329 |
| CGCGGACC | -0.00804 |
| CCTACTAG | -0.0757 |

| Sequence | PBM E-score |
| --- | --- |
| CAGGATCA | -0.201 |
| CAGGGTAA | -0.255 |
| CGGGATCA | 0.0955 |
| AAGTACGT | 0.171 |
| ATCGCTTG | 0.122 |
| AGCCCAAT | -0.108 |
| ACTTTTCA | -0.171 |
| CCACTGGG | -0.325 |
| CCTTTGTA | -0.18 |
| AGGCAATC | -0.162 |
| ACGAATGC | 0.305 |
| GTCGGCAC | -0.0966 |
| ACGATCAT | 0.282 |
| CAGACAGA | -0.126 |
| CATCCCAA | -0.227 |
| GCCGAGAC | -0.0241 |
| ACTTTCAG | -0.2 |
| GCACTCCA | -0.183 |
| CACTCCGC | -0.0252 |
| CATATCTC | -0.123 |
